The source gives no read counts; variants with many changes may rest on few reads.
B1: LINE1-mini (parent)
chain: GGCAGAGCUCAACACAGCGUGGCAAAGUGGCUGUGGCUAGACUGCC

Variants of: B1
Assay: self-cleavage, relative activity (ratio to wild type); higher = more cleavage; in vitro, sequencing; the parent is a self-cleaving ribozyme

Row | Variant | self-cleavage
1 | A11G U34G C42U | 0
2 | C10U G22U G40U | 0.06
3 | A11G C18A U20C U38A | 0.01
4 | C10U G19C G30A C42A | 0.05
5 | C10U G27C G36C C37A | 0.02
6 | A11C C13G G33U | 0.02
7 | A11C G40U C46A | 0
8 | C10U G19U U32G C37U | 0.02
9 | A11G G22C U38A | 0.04
10 | A11U A16U G27A U28A | 0.01
11 | A11C A16U C18U G21U G29A | 0.02
12 | A11C G27A U43G | 0
13 | A11C G27A U28G | 0.02
14 | A11G C13U U38G | 0.02
15 | A11C G19U U20A G21U | 0.04
16 | A11U A25U U28C C31G U38A | 0.02
17 | C10U G21U A39C | 0.16
18 | A11U C13G G19U A26C C37G C46A | 0
19 | A11G A14U C23U C42U | 0.03
20 | A11C G19C G35A | 0.03
21 | A11G C13A G35A | 0.01
22 | C10U G29U U34C | 0.04
23 | A11C G35C C37U G40C | 0.01
24 | A11G G27A U32C G36U G44U | 0.01

Row | Variant | self-cleavage
25 | A11G A12G A26U G33C A39G | 0
26 | A11C A12C A14C G27C C45U | 0
27 | A11G U20A C46A | 0.07
28 | A11G C18A C23G | 0.03
29 | C10U G19U A24C | 0.14
30 | A11U A16C C23A A24U | 0.01
31 | A11U C13G G21U U34G | 0.01
32 | A11U C13G U20C U28A G30C A39G G44A | 0
33 | A11G C15G G17C U20C C42U | 0
34 | A11G G17U G19A G30C | 0.03
35 | A11G G27C G33C C37U A39C | 0.01
36 | C10U G35U A39U | 0.03
37 | A11C A25G G27A C31A A39G | 0
38 | A11U C15A G22U G33A A39C G40A | 0.01
39 | A11U A24U C46G | 0.02
40 | C10U G21U A25U G29U C42A | 0.09
41 | A11G G19U G21A A24G U34A | 0.01
42 | A11G A14U C15U G17A A26G G36U C42A C45G | 0
43 | C10U G22A C45G | 0.06
44 | A11C C13U C15A C45A | 0.01
45 | A11U A12C C18G | 0.03
46 | A11G G35C U43A | 0.03
47 | A11C C13U G17A G27U G36C U38A U43C | 0.02
48 | A11C C13G G17C A25C G29A | 0.01

Row | Variant | self-cleavage
49 | C10U G17U C37U | 0.12
50 | A11U A26U A41U | 0.06
51 | C10U G22C A41G | 0.04
52 | A11U C13A G21U C37A | 0
53 | A11C A25U C46A | 0.04
54 | C10U G21C A39U | 0.06
55 | A11C U20C G35U | 0
56 | A11U C15A C37U C46G | 0.01
57 | A11U A25G A41G | 0.01
58 | A11C G17U A41G C45U | 0
59 | A11G G21C G35C | 0.02
60 | C10U U32G G33A U43A | 0.06
61 | A11G A12G G21U G40C A41C | 0
62 | A11U A12U C31A | 0.01
63 | A11C C13U U28A | 0.02
64 | A11G A16U A26G C42A | 0
65 | A11C A24C C31A G35U G36C | 0.01
66 | A11G C15A G17C G29C | 0.01
67 | A11C G27C G36U C37G C45U | 0
68 | A11C G35C C37U C42G C46U | 0
69 | C10U G21C C23G U32G | 0.06
70 | A11U A12G U34A | 0.02
71 | A11C A12G C23G U32G G33A G35C C45G C46G | 0
72 | A11C C23U U32C | 0.02

Row | Variant | self-cleavage
73 | A11G C18G G40U | 0.03
74 | A11U C15U G17A A25C A26U G40A C42G | 0
75 | A11C G29U U43A | 0.01
76 | A11G G21U C46U | 0.03
77 | A11G A25G C46G | 0.04
78 | A11U A25C G33C | 0
79 | C10U U32C C42U | 0.07
80 | C10U U20C G35U | 0.04
81 | A11C C18G U38C C42U | 0
82 | A11G A12C C13U C15U G17C U20G | 0.01
83 | A11U A12U U32C | 0.07
84 | A11G U32C U34G | 0
85 | C10U G17U C42G | 0.02
86 | A11G U28G C31U A41U | 0.02
87 | A11G A12U G17C G22U | 0.02
88 | A11G C31A U32G G33U | 0.01
89 | C10U G19C G27U G36A | 0.01
90 | A11C A14G G17A G30A G35A U38G | 0.01
91 | C10U U32A U34A | 0.01
92 | A11C A14U U20C | 0.03
93 | A11U A12U U43A | 0.05
94 | A11G A25C C31G A39C G44U | 0
95 | C10U U32A G36U | 0.04
96 | A11C G27A C46A | 0.03

Row | Variant | self-cleavage
97 | A11C C18A G22C G36U A41C C42G C45A | 0
98 | A11U A12C A16U G33A C37U A41C | 0.02
99 | C10U U20G A24U A25C C31A | 0.06
100 | A11U A14C G29C G30A A39U | 0.02
101 | A11U C13U A39G | 0.01
102 | C10U U34C A41C | 0.01
103 | C10U G30U C45A | 0.72
104 | A11U A12U G21C | 0.13
105 | C10U G40U C42U C45A | 0.02
106 | A11G G22C C45G | 0.03
107 | A11U A16G G40U A41U G44U | 0.01
108 | C10U U28G C42G | 0.02
109 | A11U A26U G35U G40C U43A C45A | 0.06
110 | A11G C13G G19C C42U U43G | 0.01
111 | A11C G19A A39G | 0
112 | A11U A14C C23A | 0.01
113 | A11U A24G U34G | 0.01
114 | A11C C15G C18A G22U | 0.02
115 | C10U G30U C31U | 0.31
116 | A11C G19A G21A A26U C46U | 0.04
117 | A11G G30A A41G | 0.03
118 | A11C G17U U43C | 0.03
119 | C10U U32G U38A | 0.04
120 | C10U U34G G35A | 0.04

Row | Variant | self-cleavage
121 | A11U A14C G22C G35U | 0.02
122 | A11G C37A A39G G40A | 0
123 | A11G A25G G33U | 0.02
124 | C10U G40U A41G | 0.03
125 | A11G G22A G27U | 0.02
126 | C10U G17A C23U A24C U32A | 0.03
127 | A11U C13A G30C | 0.01
128 | A11U A26G G35U G36A | 0.01
129 | A11U A12U C18U G22A C23G A24C | 0.02
130 | A11C U34C C46G | 0.02
131 | A11U A12U G17C G30C A41C G44C | 0.01
132 | C10U G17C G22U | 0.58
133 | A11C A16G C18A C31A U32C | 0
134 | A11C G17A U20G | 0.01
135 | A11C C13U A16C G22A U38A | 0
136 | A11C C13G G19U | 0.02
137 | A11G A12C A16C G19C U28C C42A | 0.01
138 | A11C C31U G44U | 0.01
139 | C10U G22A A26G G27U C31G A41G | 0.02
140 | A11C C15G U34G G40U | 0.01
141 | A11G A24U U34C | 0.02
142 | A11G G19A C31U | 0.02
143 | A11C C23U G30C | 0.1
144 | A11C G17A C42A G44U | 0.01

Row | Variant | self-cleavage
145 | C10U U28G C31A | 0.05
146 | A11G A16U C31U C37U G40C | 0
147 | A11C G21A A26C | 0.05
148 | C10U G21A G40U | 0.03
149 | A11C U34A G35C U43C | 0.02
150 | C10U G22C G29U G36A | 0.03
151 | A11G C31U C37U U38A | 0.02
152 | A11G A16C U28A | 0.03
153 | C10U G22U G30C C31A U43A | 0.01
154 | C10U G27A G29C | 0.16
155 | A11C A26U G40C | 0
156 | A11U A14C A25U C31A | 0.03
157 | A11C G21U G44C C45A | 0.01
158 | A11G G36C C37G | 0
159 | A11G G33A G36C G44U | 0.02
160 | A11C G22A A41G | 0
161 | A11C G22A A41U | 0.03
162 | A11G G17U U32A G36A | 0.01
163 | A11U A16G G22U C31U | 0.01
164 | A11G A26U G40U | 0.01
165 | A11C C18G G19C G21A | 0.03
166 | A11C C31U C42U | 0.02
167 | A11G A16U G19A | 0.01

From the RNAGym collection of RNA variant scans (doi:10.7554/elife.90254)
